{"source": "the supplement of paper PMC3334620", "note": "Whole data set: some 33,000 sequences, median “E-score (-0.5 to 0.5)” near -0.035, cut for the highest 2% near 0.34. The list shows a part of the results."}
{"biological_target": "T1, Mot3 (UniProt P54785)", "T1 sequence": "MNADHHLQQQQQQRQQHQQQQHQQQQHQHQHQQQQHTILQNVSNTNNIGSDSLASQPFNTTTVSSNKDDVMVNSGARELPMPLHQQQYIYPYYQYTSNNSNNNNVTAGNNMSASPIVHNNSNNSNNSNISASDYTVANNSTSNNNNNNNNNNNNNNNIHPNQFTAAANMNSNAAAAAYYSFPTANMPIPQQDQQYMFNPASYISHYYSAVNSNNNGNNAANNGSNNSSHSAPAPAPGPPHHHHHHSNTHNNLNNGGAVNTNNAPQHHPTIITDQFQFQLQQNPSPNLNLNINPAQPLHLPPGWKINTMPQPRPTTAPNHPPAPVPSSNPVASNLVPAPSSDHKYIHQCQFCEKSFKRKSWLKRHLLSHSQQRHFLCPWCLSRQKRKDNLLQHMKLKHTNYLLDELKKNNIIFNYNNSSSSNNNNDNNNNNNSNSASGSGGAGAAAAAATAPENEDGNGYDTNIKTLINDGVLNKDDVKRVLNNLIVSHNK", "experiment": "PBM E-score (8-mer binding enrichment) (E-score (-0.5 to 0.5)); higher = stronger / more preferred TF binding; most listed sequences are background and not binding sites", "conditions": "protein concentration: 200 nM; construct: GST-full length", "summary_of_the_method": "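Full-length yeast transcription factors or their DNA-binding domains, GST-tagged and expressed with PURExpress, were applied at about 100-200 nM to universal all-10-mer Agilent arrays. These arrays had been made double-stranded by primer extension on fresh or once-stripped slides. Detection used fluorescent anti-GST, normalisation used masliner, and E-scores for ungapped eight-base words pooled with reverse complements came from the Universal PBM Analysis Suite.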"}
{"sequence": "GGTATACC", "PBM E-score": -0.0472}
{"sequence": "CACCGAGC", "PBM E-score": -0.125}
{"sequence": "TATGAGCA", "PBM E-score": -0.0961}
{"sequence": "TGTTGCAA", "PBM E-score": 0.22}
{"sequence": "ATAGAGAG", "PBM E-score": -0.0812}
{"sequence": "GAATTCGA", "PBM E-score": -0.112}
{"sequence": "CTTATGAC", "PBM E-score": 0.034}
{"sequence": "AGCATGTA", "PBM E-score": 0.354}
{"sequence": "GCTGAGAA", "PBM E-score": -0.124}
{"sequence": "CGTTATTC", "PBM E-score": 0.115}
{"sequence": "GTAACAGA", "PBM E-score": 0.183}
{"sequence": "CGTTACAA", "PBM E-score": 0.211}
{"sequence": "CACTTAGA", "PBM E-score": 0.118}
{"sequence": "GGAACGCA", "PBM E-score": 0.128}
{"sequence": "GGACTCAA", "PBM E-score": -0.243}
{"sequence": "ATAACGAG", "PBM E-score": 0.201}
{"sequence": "AACCCAAA", "PBM E-score": 0.191}
{"sequence": "ACTAGCTG", "PBM E-score": -0.0836}
{"sequence": "CAGTGACA", "PBM E-score": 0.0778}
{"sequence": "ATATAAAT", "PBM E-score": 0.136}
{"sequence": "GAGCGGCA", "PBM E-score": -0.222}
{"sequence": "CAAGCCCC", "PBM E-score": -0.0516}
{"sequence": "AGTTAGCG", "PBM E-score": -0.0192}
{"sequence": "CCCGCGAC", "PBM E-score": -0.27}
{"sequence": "AGACCGTA", "PBM E-score": -0.147}
{"sequence": "TCGCTTAA", "PBM E-score": 0.105}
{"sequence": "TTGAACAA", "PBM E-score": 0.155}
{"sequence": "AAAGTGTA", "PBM E-score": 0.199}
{"sequence": "ACCTAACG", "PBM E-score": 0.111}
{"sequence": "ATCTAAGG", "PBM E-score": -0.138}
{"sequence": "ATCCGTGA", "PBM E-score": -0.141}
{"sequence": "GACCTCGA", "PBM E-score": -0.139}
{"sequence": "ACTAGATC", "PBM E-score": 0.053}
{"sequence": "ATGCGTGG", "PBM E-score": -0.214}
{"sequence": "CCCGGCAG", "PBM E-score": -0.235}
{"sequence": "CAAGGATC", "PBM E-score": -0.0944}
{"sequence": "ACGAAAGA", "PBM E-score": 0.163}
{"sequence": "AGGCCCGA", "PBM E-score": -0.214}
{"sequence": "ATTTATCA", "PBM E-score": 0.0158}
{"sequence": "CATGTTTC", "PBM E-score": 0.24}
{"sequence": "CTCGTAAA", "PBM E-score": 0.231}
{"sequence": "TGATTGAA", "PBM E-score": 0.117}
{"sequence": "CGCCCTAG", "PBM E-score": -0.386}
{"sequence": "CACGTGGA", "PBM E-score": 0.103}
{"sequence": "AACTGTCC", "PBM E-score": -0.122}
{"sequence": "ATGACGCG", "PBM E-score": 0.219}
{"sequence": "CTCACTTA", "PBM E-score": -0.0459}
{"sequence": "GACTGCTC", "PBM E-score": -0.202}
{"sequence": "CGGAACAG", "PBM E-score": -0.216}
{"sequence": "GAAGCCGC", "PBM E-score": -0.242}
{"sequence": "TCCCACCA", "PBM E-score": -0.0956}
{"sequence": "GATAGCAC", "PBM E-score": -0.204}
{"sequence": "CAGGCATA", "PBM E-score": 0.319}
{"sequence": "GGGACGGA", "PBM E-score": -0.382}
{"sequence": "AAGTACGA", "PBM E-score": 0.0191}
{"sequence": "AACCGATT", "PBM E-score": -0.0255}
{"sequence": "CGAACCAC", "PBM E-score": -0.252}
{"sequence": "AGTGCTCC", "PBM E-score": -0.241}
{"sequence": "AGAATCAG", "PBM E-score": -0.105}
{"sequence": "GAGTAATC", "PBM E-score": 0.108}
{"sequence": "GCTGGACC", "PBM E-score": -0.332}
{"sequence": "GTAAATCA", "PBM E-score": 0.195}
{"sequence": "AAAATGTT", "PBM E-score": 0.254}
{"sequence": "ATGTATCA", "PBM E-score": 0.222}
{"sequence": "GAGCGAAA", "PBM E-score": -0.0548}
{"sequence": "CCCAGACC", "PBM E-score": -0.181}
{"sequence": "CGAGTCCA", "PBM E-score": -0.266}
{"sequence": "ACTTAACT", "PBM E-score": -0.00568}
{"sequence": "CTCGGGCC", "PBM E-score": -0.12}
{"sequence": "CAATGGAC", "PBM E-score": -0.189}
{"sequence": "CTGGGCTC", "PBM E-score": -0.148}
{"sequence": "CCGCCCAG", "PBM E-score": -0.106}
{"sequence": "GACTGCTA", "PBM E-score": -0.251}
{"sequence": "ACTGCATA", "PBM E-score": 0.093}
{"sequence": "ATTTAGCG", "PBM E-score": -0.0648}
{"sequence": "ACCACAAC", "PBM E-score": 0.177}
{"sequence": "CACACTAA", "PBM E-score": 0.0759}
{"sequence": "ACTCGTAT", "PBM E-score": 0.0531}
{"sequence": "AGAGACCC", "PBM E-score": -0.235}
{"sequence": "AGGCTGAA", "PBM E-score": -0.208}
{"sequence": "GTGAGCGA", "PBM E-score": -0.185}
{"sequence": "CAGGAGCG", "PBM E-score": -0.138}
{"sequence": "CCGTCTCC", "PBM E-score": -0.265}
{"sequence": "AAGGGTGA", "PBM E-score": -0.147}
{"sequence": "GACCGTGC", "PBM E-score": -0.0459}
{"sequence": "AATATCCT", "PBM E-score": -0.148}
